# Test results taken from PubChem BioAssay AID485313 (National Center for Advancing Translational Sciences (NCATS), 2010).
# Screen size: about 320,000 compounds; about 7,600 (2.4%) were called active. Inconclusive means that the source gave no clear call. Such entries were picked first, then a sample of the others. Calls come from the whole dose curve; as a rule, active = well fitted activation curve with a large enough effect; inconclusive = small, poorly fitted or top-dose-only effect; inactive = no such curve, though single readings can be large or run the other way. No potency is given beside an inconclusive call; the fits are too rough.
# Experiment: qHTS Assay for NPC1 Promoter Activators; note: nearly all actives have a fitted effect of over 60% in size;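 for activation: reporter is driven by a mutant NPC1 promoter; % of control where 0% means no effect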
# Details: Huh7 NPC1 promoter luciferase reporter, 24 h; series mostly up to 9.22 µM; activation: at the top concentration
# Procedure, shortened: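 Readout is luciferase luminescence, reflecting NPC1 promoter activation in stably transfected Huh7 cells after 24 h compound exposure at 37 °C in reduced-serum medium with 10% FBS.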
# Potency is the fitted concentration of half-maximal effect; tags give direction and shape of the fitted curve.
Structure (SMILES),Potency,activation
CC#CCCCC(=O)Nc1cccc(C(=O)O)c1,"inconclusive [activator, partial curve]",–
COCCn1c(C)cc(C(=O)COC(=O)c2cncc(Br)c2)c1C,"inconclusive [activator, single point]",–
O=C1C2C3C=CC(C4CC34)C2C(=O)N1c1cccc2ccccc12 (configuration not stated),–,inactive: 13.7%
O=C(c1ccc(Cl)cc1Cl)N1CCc2ccccc21,–,inactive: 2.66%
O=[N+]([O-])c1ccccc1OCCOc1ccccc1[N+](=O)[O-],active: 3.55 µM,–
O=C(O)/C(=C\c1cn(-c2ccccc2)nc1-c1cccnc1)NC(=O)c1ccccc1,–,inactive: 0.303%
O=C(CCNS(=O)(=O)c1ccccc1)N1CCCCCC1,–,inactive: 30%
CC(C)(C)c1nnc(NC(=O)c2cccs2)s1,active: 2.82 µM,–
Cc1noc(C)c1CSCC(=O)OCC(=O)NC1CCCCC1,–,inactive: 3.08%
Cc1ccc(OCC(=O)Nc2ccncc2)c(C)c1,–,inactive: -4.14%
C(=C\c1ccc2ccccc2n1)/c1ccccc1,active: 2.82 µM,–
COc1ccc(-c2cc3c(=O)n(CC(=O)NCCCc4ccccc4)ncn3n2)cc1,active: 2.82 µM,–
O=C(Nc1ccc2c(c1)OCCO2)c1cc(F)c(F)cc1Cl,active: 2.24 µM,–
COCC1CCN(Cc2nc(-c3ccc4c(c3)OCO4)no2)C1 (configuration not stated),"inconclusive [activator, single point]",–
Nc1c(C=C2C=CC(=O)C=C2)c(=O)nc2snc(SCc3ccccc3)n12,"inconclusive [activator, single point]",–
Cc1nnc(SCC(=O)Nc2cc(C(F)(F)F)ccc2Cl)n1C,–,inactive: -3.37%
O=C(Nc1ccc2c(c1)OCO2)OCc1ccccc1,active: 1.58 µM,–
CCn1nc(C(=O)Nc2ccc(C)c(C)c2)c(Cl)c1Cl,"inconclusive [activator, single point]",–
CCOc1ccc(S(=O)(=O)N(C)c2ccc(OCC(=O)NCc3cccnc3)cc2)cc1,–,inactive: 0.442%
O=C(Nc1ccc(Cl)cn1)c1ccc2c(c1)OCCO2,active: 0.501 µM,–
Cc1ccccc1/C=N/Nc1nc2ccccc2c(=O)n1O,–,inactive: 12.6%
COc1ccccc1CN=C1Nc2ccccc2CS1,"inconclusive [activator, single point]",–
Clc1ccc(-c2cn3cc(Br)ccc3n2)cc1Cl,active: 3.98 µM,–
CCOc1ccc(N2C(=O)/C(=C/c3ccccc3)N=C2SC)cc1,active: 3.55 µM,–
Cc1ccc(N/C=C/C(=O)c2cccs2)cc1,"inconclusive [activator, full curve, poor fit]",–
Cc1cccc(OCC(=O)Nc2cccc(-c3nnc(-c4ccccc4)o3)c2)c1C,"inconclusive [activator, partial curve]",–

Structure (SMILES),Potency,activation
COc1ccccc1Nc1ccc(Nc2ccccc2OC)nn1,"inconclusive [activator, single point]",–
Cc1ccn2c(NC(C)(C)C)c(-c3cccs3)nc2c1,–,inactive: -5.79%
O=C(CSc1nc2ccccc2o1)c1ccccc1,"inconclusive [activator, single point]",–
COC(=O)c1ccc2nc(NC(=O)C(C)(C)C)sc2c1,"inconclusive [activator, full curve]",–
COCc1nc2oc3ccc(C)cc3c(=O)c2cc1C(=O)OC,"inconclusive [activator, single point]",–
CCOc1cc(/C=C2\C(=O)N(Cc3ccc(C)cc3)C(C)=C2C(=O)OC)ccc1O,–,inactive: -1.61%
Cc1ccc(-c2nnc(-c3ccccc3)o2)cc1,active: 3.16 µM,–
CC(=O)c1ccc(N(C(=O)CNC(=O)c2ccco2)C(C(=O)NCC2CCCO2)c2ccccc2)cc1 (configuration not stated),–,inactive: -2.21%
Cc1ccnc(NC(=S)NC(=O)/C=C/c2ccccc2)c1,"inconclusive [activator, partial curve]",–
COCCNC(=O)C(c1ccncc1)N(Cc1ccccc1)C(=O)Cn1nnc2ccccc21 (configuration not stated),"inconclusive [activator, single point]",–
CCOc1ccc(-c2nnc(SCC(=O)N3CCCC3)o2)cc1,"inconclusive [activator, partial curve]",–
Cc1ccoc1C(=O)Nc1cccc(Oc2ccccc2)c1,"inconclusive [activator, partial curve]",–
O=C(Nc1nc2c(s1)CCCC2=O)c1cnccn1,"inconclusive [activator, single point]",–
CC(C)Cc1cc(C(=O)NCc2cccs2)no1,"inconclusive [activator, single point]",–
Cc1ccc(NC(=O)CN2C(=O)N/C(=C/c3ccccc3OCc3cccc(C(=O)O)c3)C2=O)cc1,"inconclusive [activator, partial curve]",–
COc1cccc(C(C(=O)NC2CCCC2)N(CCC(C)C)C(=O)CCC(=O)Nc2cc(C)on2)c1 (configuration not stated),"inconclusive [activator, single point]",–
CC(=O)c1cccc(NC(=O)COC(=O)c2ccccc2C)c1,"inconclusive [activator, single point]",–
CCc1nnc(NC(=O)CSc2nc(C)cc(C)c2C#N)s1,"inconclusive [activator, full curve]",–
Cc1cc(C(=O)COC(=O)c2ccc[nH]c2=O)c(C)n1-c1ccc(Br)cc1,–,inactive: 21.9%
C[C@]12CC[C@@H]3c4ccc(O)cc4C[C@@H](CCCCCCCCCS(=O)CCCC(F)(F)C(F)(F)F)[C@H]3[C@@H]1CC[C@@H]2O (some centres not stated),–,inactive: -8.95% [at 46.1 µM]
Cc1nn(C)c(C)c1CNC(=O)Nc1ccc(Cl)cc1,"inconclusive [activator, partial curve]",–
CCCn1cnc2cc(NC(=O)c3ccco3)ccc21,active: 3.55 µM,–
C=CCNC(=O)c1cc(-c2ccc(Br)cc2)on1,active: 1.26 µM,–
COc1ccc(-c2c(C)c3ccc(OCC(C)=O)cc3oc2=O)cc1,active: 2.82 µM,–
Brc1ccccc1-c1nc(-c2ccccc2)no1,–,inactive: 26.8%
Cc1c(NC(=O)c2ccc(=O)oc2)c(=O)n(-c2ccccc2)n1C,"inconclusive [activator, partial curve]",–
